Reference: the supplement of paper PMC7125110
± gives the standard error. This sample is rich in variants without activity.

B1: glmS ribozyme (parent)
chain: AUAAAAGCGCCAGAACUACAGAAAUGUAGUUGACGAGGAGGAGGUUUAUCGAAUUUUCGGCGGAUGCCUCCAAA

How the values were obtained:
Conditions in all cases: with glucosamine-6-phosphate
[1] = variants of: B1; assay: self-cleavage kobs at 40 uM GlcN6P; higher = faster cleavage; RNA array
Procedure, shortened: (§1)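 kcat and KM were obtained from weighted Michaelis–Menten fits across concentrations of kobs values. Those came from one- or two-exponential decay fits to per-tile medians normalised to baseline and to non-cleaving reference variants. The variants were barcoded ribozymes transcribed in situ by E. coli RNA polymerase on sequenced MiSeq chips and tracked through a hybridised Cy3 probe at 37 °C, with 40 μM to 10 mM glucosamine-6-phosphate in HEPES/KCl/Mg(OAc)2 buffer flowed in.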

[2] = variants of: B1; assay: self-cleavage kobs at 2500 uM GlcN6P; higher = faster cleavage; RNA array
Procedure, shortened: as §1

[3] = variants of: B1; assay: self-cleavage kobs at 10000 uM GlcN6P; higher = faster cleavage; RNA array
Procedure, shortened: as §1

[4] = variants of: B1; assay: self-cleavage kobs at 640 uM GlcN6P; higher = faster cleavage; RNA array
Procedure, shortened: as §1

[5] = variants of: B1; assay: self-cleavage kobs at 160 uM GlcN6P; higher = faster cleavage; RNA array
Procedure, shortened: as §1

Variant	self-cleavage kobs at 40 uM GlcN6P [1]	self-cleavage kobs at 2500 uM GlcN6P [2]	self-cleavage kobs at 10000 uM GlcN6P [3]	self-cleavage kobs at 640 uM GlcN6P [4]	self-cleavage kobs at 160 uM GlcN6P [5]
U47C C50U U56G	< 1e-05 s⁻¹				
U47C G62U U65G	< 1e-05 s⁻¹	< 1e-05 s⁻¹	< 1e-05 s⁻¹		
U47C G66A	0.000111 ± 2.1e-05 s⁻¹	0.00159 ± 0.00037 s⁻¹	0.00183 ± 0.0004 s⁻¹	0.000815 ± 0.0002 s⁻¹	0.00017 ± 6.1e-05 s⁻¹
U47G A48C C50A	< 1e-05 s⁻¹		< 1e-05 s⁻¹	< 1e-05 s⁻¹	
U47G C50U A64U	< 1e-05 s⁻¹				
U47G C70U	0.000323 ± 3.2e-05 s⁻¹	0.000583 ± 0.00011 s⁻¹		0.00192 ± 0.00055 s⁻¹	0.000641 ± 8.8e-05 s⁻¹
U47G G51A	< 1e-05 s⁻¹				
U47G G59A	< 1e-05 s⁻¹				
U47G G59C	< 1e-05 s⁻¹	< 1e-05 s⁻¹	< 1e-05 s⁻¹	< 1e-05 s⁻¹	
U47G U56C A64G	< 1e-05 s⁻¹	7.42e-05 ± 1.5e-05 s⁻¹	9.62e-05 ± 1.7e-05 s⁻¹	2.82e-05 ± 1.4e-05 s⁻¹	
A48C C68U	< 1e-05 s⁻¹	6.35e-05 ± 1.3e-05 s⁻¹	7.54e-05 ± 1.1e-05 s⁻¹		
A48C G59C	< 1e-05 s⁻¹	< 1e-05 s⁻¹	< 1e-05 s⁻¹	< 1e-05 s⁻¹	< 1e-05 s⁻¹
A48C G62C	< 1e-05 s⁻¹	< 1e-05 s⁻¹	< 1e-05 s⁻¹	< 1e-05 s⁻¹	< 1e-05 s⁻¹
A48C U49A	< 1e-05 s⁻¹		< 1e-05 s⁻¹		
A48C U65A	< 1e-05 s⁻¹				
A48C U65A U69G	< 1e-05 s⁻¹	< 1e-05 s⁻¹	< 1e-05 s⁻¹		
A48G G60C	< 1e-05 s⁻¹	< 1e-05 s⁻¹	< 1e-05 s⁻¹	< 1e-05 s⁻¹	
A48G G63U	< 1e-05 s⁻¹	< 1e-05 s⁻¹	< 1e-05 s⁻¹		
A48U A52C	< 1e-05 s⁻¹		< 1e-05 s⁻¹	< 1e-05 s⁻¹	< 1e-05 s⁻¹
A48U A52G	< 1e-05 s⁻¹				
A48U A52U	< 1e-05 s⁻¹	< 1e-05 s⁻¹	< 1e-05 s⁻¹	< 1e-05 s⁻¹	< 1e-05 s⁻¹
A48U C50A	< 1e-05 s⁻¹		< 1e-05 s⁻¹	< 1e-05 s⁻¹	< 1e-05 s⁻¹
A48U C58U	< 1e-05 s⁻¹				
A48U C61A C67U	< 1e-05 s⁻¹				
A48U G51U G60A	< 1e-05 s⁻¹	< 1e-05 s⁻¹			
A48U G60C C61U	< 1e-05 s⁻¹			< 1e-05 s⁻¹	

Variant	self-cleavage kobs at 40 uM GlcN6P [1]	self-cleavage kobs at 2500 uM GlcN6P [2]	self-cleavage kobs at 10000 uM GlcN6P [3]	self-cleavage kobs at 640 uM GlcN6P [4]	self-cleavage kobs at 160 uM GlcN6P [5]
A48U G62A	< 1e-05 s⁻¹	< 1e-05 s⁻¹	< 1e-05 s⁻¹	< 1e-05 s⁻¹	< 1e-05 s⁻¹
A48U G66U	< 1e-05 s⁻¹				
A48U U54G C58A C70U	< 1e-05 s⁻¹				
A48U U65A G66C C68A	< 1e-05 s⁻¹		< 1e-05 s⁻¹	< 1e-05 s⁻¹	
U49A A53U	< 1e-05 s⁻¹				
U49A C50A C70G	< 1e-05 s⁻¹		< 1e-05 s⁻¹	5.26e-05 ± 2.2e-05 s⁻¹	
U49A C58U	< 1e-05 s⁻¹	< 1e-05 s⁻¹		< 1e-05 s⁻¹	
U49A G51C	< 1e-05 s⁻¹		< 1e-05 s⁻¹		< 1e-05 s⁻¹
U49A G51U	< 1e-05 s⁻¹		< 1e-05 s⁻¹	< 1e-05 s⁻¹	
U49C C70U C71A	< 1e-05 s⁻¹		< 1e-05 s⁻¹		
U49C G59A	< 1e-05 s⁻¹				
U49C G60C	< 1e-05 s⁻¹	< 1e-05 s⁻¹	< 1e-05 s⁻¹		
U49C G60U	< 1e-05 s⁻¹				
U49C U57C	< 1e-05 s⁻¹		< 1e-05 s⁻¹	< 1e-05 s⁻¹	< 1e-05 s⁻¹
U49C U69C	< 1e-05 s⁻¹	< 1e-05 s⁻¹		< 1e-05 s⁻¹	< 1e-05 s⁻¹
U49G A53C G60C	< 1e-05 s⁻¹				
U49G U54A G62A	< 1e-05 s⁻¹		< 1e-05 s⁻¹		
U49G U55G U65G	< 1e-05 s⁻¹				
U49G U56C	< 1e-05 s⁻¹				
C50A C58A	< 1e-05 s⁻¹				< 1e-05 s⁻¹
C50A G62U G63A	< 1e-05 s⁻¹	< 1e-05 s⁻¹	< 1e-05 s⁻¹	< 1e-05 s⁻¹	< 1e-05 s⁻¹
C50A U56C C71A	< 1e-05 s⁻¹		< 1e-05 s⁻¹		
C50A U57A	< 1e-05 s⁻¹	< 1e-05 s⁻¹			
C50G C68A	7.16e-05 ± 9.2e-06 s⁻¹			0.000137 ± 2.4e-05 s⁻¹	0.000228 ± 3.1e-05 s⁻¹
C50G G51C C70U	< 1e-05 s⁻¹				
C50G G62U C68G	0.000123 ± 3.2e-05 s⁻¹				
